According to the supplement of paper PMC10126150:
Sequences with one replicate were seen in a single cluster, so their values are uncertain.

Tested on: ATP
Test: switch fluorescence ratio, 500 uM ATP over buffer (Cy3 cluster intensity, sum of 5 cycles each) (fold (ratio)); higher = stronger signal-on switching upon ATP binding; sequences stand for … in TCGTCGGCAGCGTCAGATGTGTATAAGAGACAGTTTTTTTTTTTTTTTTTTTTTTTTT…TC
Conditions: aptamer strand: ATP DNA aptamer (quencher-CACCTGGGGGAGTATTGCGGAGGAAGG + anchor), 100 nM annealed; ATP concentration: 500 uM; one replicate
Outline: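 Between each of five buffer/ATP cycles, the flow-cell was stripped with NaOH and re-annealed. Each cycle imaged Cy3-labelled switching-strand clusters, annealed to 100 nM quencher-labelled ATP aptamer on a modified Illumina MiSeq flow-cell, first in selection buffer and then after 15 min with 500 uM ATP at 22 °C. The fluorescence ratio is summed target-cycle over summed buffer-cycle Cy3 intensity per cluster, averaged per switch-domain sequence, with clusters outside 100-1000 RFU excluded.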
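Also: ATP exposure 15 min at 22 °C before imaging.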

Sequence | switch fluorescence ratio
GCGTGAGGGA | 1.04
CACGAACTCA | 1.34
TGGATCAGGG | 1.03
GAGATTAGAT | 0.991
GCTGCTCACG | 1.02
GGAAATAGGG | 0.999
ACCGTGTGGA | 0.997
TCGGTTGAGC | 1.02
TTTCCGACTA | 1.62
ATCATGATTT | 0.964
TATTCGCCCT | 0.997
TATTGCCGTT | 0.946
TTCTCCAC | 1.18
GCCTGTAGAG | 0.994
TCACGTCTAA | 0.999
ACTCTAGTGA | 0.979
AGAACCGGAA | 1.19
TACGTCAATT | 1.28
CAAAATGTAA | 0.975
CGTGCGTTG | 0.984
CCGAGACGAG | 1.01
GGTGGAGAAA | 0.988
CTACATTTAG | 1.03
ATAAGGCGGT | 0.988
GGTGCGTATT | 0.939
GGTCGCTCAC | 0.995

Sequence | switch fluorescence ratio
GGAATGGTAA | 1
ATTCGTTTCC | 1.08
GAATCAGGAA | 1
AACCGTTACT | 1.21
GATCCGTTTG | 0.976
TAGTATACTT | 0.982
TGCGGTGCTC | 1.13
TGACTTTTAA | 0.959
TCTCGACGGA | 1.02
TAGGATACCG | 1.08
GAAAATTTTA | 1
CATTTTGGAC | 0.999
GAGTGACTC | 1.05
GAATCTTGGT | 1.01
CTGGGGTCCG | 1
GACATCGCGG | 1.01
GCCCGCGGCG | 0.983
AGAATCCTTT | 1.01
TTCTTCAGAC | 1.02
GATCGGATA | 0.998
GACGGGTAA | 1.01
CTGTTTTTCA | 0.988
AGGAGGACCT | 1.04
AATCGAATAC | 2.25
CAGAGGTCCG | 1.01
TATTTGTCTG | 1.02

Sequence | switch fluorescence ratio
GGGTCAGCTT | 1.01
GCCGTTAAAG | 0.974
GAATTCAGGC | 0.954
AAATTCTAGC | 1.02
AGAGAGCAGG | 1.11
GAGGAGCCTG | 1.02
AGCTCCAGCG | 1.04
TATGTTCGTA | 0.978
GGGCAAGGCT | 1.03
AGTGATCG | 1
ACAGAGCTTG | 1.02
AAACATATGT | 0.993
TTTTCTGCGA | 1.4
CCTCATAGGG | 1.07
GAGCGGGCGG | 1.02
CCTTTTGTCG | 0.974
GGTCACGTCC | 0.969
ATTCAGGAG | 1.01
GTAACTCATA | 1.03
ATCGAGAAAT | 1.02
CAGGATAAAA | 0.993
CAATGAGGGG | 1.06
AGAGTATAA | 0.989
ACCTCAGTAG | 1.13
TAGCTCTGAT | 1.02
CATTGACCTC | 1.07

Sequence | switch fluorescence ratio
GGATCACATT | 0.973
CGCCATTATT | 0.983
ACTGATCCC | 1.03
AATACTGGGT | 1.08
ATTGAAAAG | 0.962
TTCGTCTAAT | 0.998
CACTGTGCAC | 1.04
GTGCGACCTT | 1.18
GCGTTTTACG | 0.996
ATAGTCTGTA | 0.982
TACCAGTTTG | 1.05
TTTCATCGTG | 1.02
GCCTGTTTTC | 1.01
TGTTTCGGTA | 1.01
GGAATAATTG | 1.03
ACTTCTGGCA | 1.1
CCGGGGCATT | 2.01
TAGTTCGTTC | 0.998
CCATGTAGAC | 1.15
GGGTGCTGTA | 0.957
TTGTAAGCTG | 1.09
GCTCCTTCAA | 1.8
AGTAGGCTTG | 1.02
TGATGTTTGG | 1.01
ATGTGACGTC | 1.01
AGGGCGGGAA | 1.02

Sequence | switch fluorescence ratio
CATTTTTCT | 0.963
GTAACACGGG | 0.993
GGGGTTAAG | 1.01
CTGATTAGTG | 0.96
ACCTAGGTG | 3.14
CTTCAGTAGG | 1.04
AAGGTGCGCA | 1.1
CACACTTATC | 1.11
TTTGCCGTAC | 0.969
CTTTGTAAGA | 1.04
TTCGCTGTAG | 1.08
GGAGAATGCT | 0.959
CCGGTACTAC | 4.76
CGCTGGTGCA | 1.05
TTCTGCTCTT | 1.02
CATTGCGA | 1.1
CTAGTACCGT | 1.01
AACTTTCTTG | 0.954
TTGAGAACCC | 0.998
TAATCCCGA | 0.994
ATTCTGGTTG | 1
CGTTCCTGGT | 1.01
CGGATTTCGA | 1.03
GCTCACATGC | 1.1
TTTCTATGT | 0.951
TTAGGGGCAT | 1.05

Sequence | switch fluorescence ratio
TGTATTCAAC | 1
CGTACAAATA | 1.03
TCACGGTATT | 1.14
CTATTTACCG | 1.02
GGTGGTGGAT | 0.987
TACGATCTGA | 0.999
GGAGGAACAC | 1.24
TGAAAACCGG | 1
GGGCATCCAA | 0.977
CCCGAAGGGA | 1.37
TCCGGTATTG | 1.01
TTTTAGCCTG | 1.1
CATTTGGGG | 0.977
CACAGACATC | 1.27
ATATCAGTGC | 0.958
ATTGGCCTAG | 1.01
CGACAGGTGT | 4.19
TACATTTAAG | 1.03
TGATTAGGGA | 1.02
ATTTCGGCGT | 1.01
AATTCGTAAG | 1
GAACTATTTG | 1
TCCATTATAG | 0.992
TCCAACATGA | 1
TCAGGTCGCT | 0.99
CGCCCGGTGT | 4.14

Sequence | switch fluorescence ratio
TGTGGTTCCT | 1.01
GGCAAAAGTT | 1.02
AGGCATTGGA | 0.964
CAGGACAATT | 1.02
GGAAAGTATT | 0.972
CTTCAATTTT | 0.988
CGTCTACGAC | 1.04
ATGACAGGGA | 1.02
TATCGTGAAG | 1
ACTTTGCAGG | 1.14
CATCACTGTA | 1.18
CCGGCTCGCC | 1.04
TCGTAGTTTT | 0.983
TTACGGCATC | 2.36
GGTGGTAACT | 0.991
AAGATAACT | 1
TTGAGCAAT | 1.91
TTCAAATTA | 1
TGAAACCGTG | 1.09
TTCTCGAATG | 1.01
TATTAATATA | 0.992
GGTGCGAATT | 1
ATGAATTCCC | 0.998
TGAAGTCCTC | 0.996
ATGGCAATGC | 5.04
ATAGATTAGC | 1.02

Sequence | switch fluorescence ratio
AAGAAAGTAG | 1.05
TCTTGGAGTC | 1.01
TCATCCCTTG | 1.03
CGCGAGTTAT | 1.03
TGAGAACCGG | 0.957
GTGTTCGAAG | 0.956
GTCACACTC | 1.06
CGAATCCGTG | 0.99
AAAGTCAATA | 1.08
CAAATTGGCA | 1.01
CATTTTGAAC | 0.968
TGAGCTCAGG | 1.02
AATTGTGTTA | 1.01
CTGGCCCCGA | 1.01
TCGCATGTTT | 1.06
AATTACCCCA | 1.29
CGCGGAATCA | 1.04
ATGAGGATTG | 0.997
CCTTAGGAAG | 0.937
